The list shows a part of the results. Rule as the data show it: active = 3.2 or more and inactive = the rest. Only a few entries rise above the background.
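Also: displayed peptides selected on beads carrying the immobilized SH2 domain, with library peptides lacking any tyrosine serving as negative controls.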

In the first assay the target is SHP2 C-SH2 domain E139D. In words: enrichment score (SH2-bound / input frequency) (ratio); bacterial display of known human phosphotyrosine sites (pTyr-Var adds point mutants) read by sequencing; higher = stronger binding; tyrosines were phosphorylated by kinases first. As to conditions: peptide library: pTyr-Var.
For the molecule YTDPYYDYEIE [ZC3H18_Y372_A368T], the enrichment score is inactive: 0.819.
Still for that read-out and setting: to GADDSYYTVRS [ZAP70_Y492_A495V] belongs inactive: 0.626.
On to PLTKVYVVEGS [ZMPSTE24_Y253], for which the enrichment score was inactive: 0.453.
For the molecule KMKGDYYCYLA [YWHAG_Y130_R132C], the enrichment score is inactive: 1.06.
Still for that read-out and setting: to VLALWYFFLTN [ZDHHC23_Y127_H132N_YF] belongs inactive: 2.92; to LLSVAYKNVVR [YWHAZ_Y48_G53R], inactive: 1.12; to PYTDPYYDYEI [ZC3H18_Y371_A368T], inactive: 0.615.
Same read-out and setting: the figure for MKGEYYRYLAE [YWHAG_Y131_D129E] is inactive: 0.951; for CPPELYALMSD [ZAP70_Y569] it is inactive: 0.984.
The same measure, in the same setting: to PFTDPYFDFEI [ZC3H18_Y371_A368T_YF] belongs inactive: 1.1; to KACKHYLTKRT [ZBTB5_Y118_T121K], active: 4.46; to GADDSYFTVRS [ZAP70_Y492_A495V_YF], inactive: 0.747.
Regarding VMLENYSNLLS [ZFP69_Y109_V113L], the enrichment score is inactive: 1.31.
APRKVYDTQDD [ZFPL1_Y215_R218Q]: the enrichment score is inactive: 0.378.
Still for that read-out and setting: the figure for GDYYCYLAEVA [YWHAG_Y133_R132C] is inactive: 0.963; for WPLKWYAPECI [ZAP70_Y506] it is inactive: 1.22; for KACKHYLTTRT [ZBTB5_Y118] it is active: 3.48.
The same measure, in the same setting: the figure for ADDSFYTARSA [ZAP70_Y493_YF] is inactive: 0.319; for TGDRPYVCPFD [YY1_Y383] it is inactive: 0.685.

A further assay concerns the target SHP2 C-SH2 domain wild-type. Described as above. As to conditions: peptide library: pTyr-Var.
For the molecule YTDPYYDYEIE [ZC3H18_Y372_A368T], the enrichment score is inactive: 0.851.
The same measure, in the same setting: to GADDSYYTVRS [ZAP70_Y492_A495V] belongs inactive: 0.552; to PLTKVYVVEGS [ZMPSTE24_Y253], inactive: 0.39; to KMKGDYYCYLA [YWHAG_Y130_R132C], inactive: 0.928.
Same read-out and setting: to VLALWYFFLTN [ZDHHC23_Y127_H132N_YF] belongs inactive: 2.94; to LLSVAYKNVVR [YWHAZ_Y48_G53R], inactive: 1.13.
As to PYTDPYYDYEI [ZC3H18_Y371_A368T], the enrichment score is inactive: 0.685.
As to MKGEYYRYLAE [YWHAG_Y131_D129E], the enrichment score is inactive: 0.791.
The same measure, in the same setting: to CPPELYALMSD [ZAP70_Y569] belongs inactive: 0.985.
Regarding PFTDPYFDFEI [ZC3H18_Y371_A368T_YF], the enrichment score was inactive: 0.755.
As to KACKHYLTKRT [ZBTB5_Y118_T121K], the enrichment score was active: 4.03.
The same measure, in the same setting: the figure for GADDSYFTVRS [ZAP70_Y492_A495V_YF] is inactive: 0.728.
The same measure, in the same setting: the figure for VMLENYSNLLS [ZFP69_Y109_V113L] is inactive: 1.21; for APRKVYDTQDD [ZFPL1_Y215_R218Q] it is inactive: 0.486; for GDYYCYLAEVA [YWHAG_Y133_R132C] it is inactive: 1.22.
Take WPLKWYAPECI [ZAP70_Y506]: the enrichment score was inactive: 1.56.
Same read-out and setting: to KACKHYLTTRT [ZBTB5_Y118] belongs active: 3.2.
Same read-out and setting: the figure for ADDSFYTARSA [ZAP70_Y493_YF] is inactive: 0.296.
Regarding TGDRPYVCPFD [YY1_Y383], the enrichment score is inactive: 0.76.

The target of another assay is SHP2 N-SH2 domain L43F. The assay is described as above. The following applies: peptide library: pTyr-Var.
With YTDPYYDYEIE [ZC3H18_Y372_A368T], the enrichment score is inactive: 0.97.
On the same count and under the same terms, to GADDSYYTVRS [ZAP70_Y492_A495V] belongs inactive: 0.572; to PLTKVYVVEGS [ZMPSTE24_Y253], inactive: 0.555.
The same measure, in the same setting: to KMKGDYYCYLA [YWHAG_Y130_R132C] belongs inactive: 0.807; to VLALWYFFLTN [ZDHHC23_Y127_H132N_YF], inactive: 2.57.
Take LLSVAYKNVVR [YWHAZ_Y48_G53R]: the enrichment score is inactive: 1.22.
PYTDPYYDYEI [ZC3H18_Y371_A368T]: the enrichment score is inactive: 0.7.
On the same count and under the same terms, the figure for MKGEYYRYLAE [YWHAG_Y131_D129E] is inactive: 0.848.
Still for that read-out and setting: the figure for CPPELYALMSD [ZAP70_Y569] is inactive: 1.55; for PFTDPYFDFEI [ZC3H18_Y371_A368T_YF] it is inactive: 0.883; for KACKHYLTKRT [ZBTB5_Y118_T121K] it is active: 3.87.
Still for that read-out and setting: to GADDSYFTVRS [ZAP70_Y492_A495V_YF] belongs inactive: 0.711; to VMLENYSNLLS [ZFP69_Y109_V113L], inactive: 1.15.
For APRKVYDTQDD [ZFPL1_Y215_R218Q], the enrichment score was inactive: 0.412.
On the same count and under the same terms, to GDYYCYLAEVA [YWHAG_Y133_R132C] belongs inactive: 1.16.
Same read-out and setting: the figure for WPLKWYAPECI [ZAP70_Y506] is inactive: 1.68; for KACKHYLTTRT [ZBTB5_Y118] it is active: 3.29; for ADDSFYTARSA [ZAP70_Y493_YF] it is inactive: 0.318.
Take TGDRPYVCPFD [YY1_Y383]: the enrichment score is inactive: 0.813.

A further assay deals with SHP2 N-SH2 domain T42A. The assay is described as above. The following applies: peptide library: pTyr-Var.
On to YTDPYYDYEIE [ZC3H18_Y372_A368T], for which the enrichment score was inactive: 0.76.
On the same count and under the same terms, to GADDSYYTVRS [ZAP70_Y492_A495V] belongs inactive: 0.499; to PLTKVYVVEGS [ZMPSTE24_Y253], inactive: 0.436; to KMKGDYYCYLA [YWHAG_Y130_R132C], inactive: 0.66.
The same measure, in the same setting: to VLALWYFFLTN [ZDHHC23_Y127_H132N_YF] belongs inactive: 2.77.
As for LLSVAYKNVVR [YWHAZ_Y48_G53R], the enrichment score was inactive: 0.673.
Regarding PYTDPYYDYEI [ZC3H18_Y371_A368T], the enrichment score is inactive: 0.657.
Still for that read-out and setting: the figure for MKGEYYRYLAE [YWHAG_Y131_D129E] is inactive: 0.539.
Still for that read-out and setting: to CPPELYALMSD [ZAP70_Y569] belongs inactive: 1.71; to PFTDPYFDFEI [ZC3H18_Y371_A368T_YF], inactive: 0.864.
On the same count and under the same terms, the figure for KACKHYLTKRT [ZBTB5_Y118_T121K] is active: 3.59; for GADDSYFTVRS [ZAP70_Y492_A495V_YF] it is inactive: 0.605.
For the molecule VMLENYSNLLS [ZFP69_Y109_V113L], the enrichment score is inactive: 1.2.
Same read-out and setting: to APRKVYDTQDD [ZFPL1_Y215_R218Q] belongs inactive: 0.424; to GDYYCYLAEVA [YWHAG_Y133_R132C], inactive: 1.02.
The same measure, in the same setting: the figure for WPLKWYAPECI [ZAP70_Y506] is inactive: 1.35; for KACKHYLTTRT [ZBTB5_Y118] it is inactive: 2.7.
On the same count and under the same terms, the figure for ADDSFYTARSA [ZAP70_Y493_YF] is inactive: 0.471; for TGDRPYVCPFD [YY1_Y383] it is inactive: 0.837.

The target in a further assay is SHP2 N-SH2 domain T52S. The description is as above. As to conditions: peptide library: pTyr-Var.
Take YTDPYYDYEIE [ZC3H18_Y372_A368T]: the enrichment score was inactive: 0.704.
The same measure, in the same setting: the figure for GADDSYYTVRS [ZAP70_Y492_A495V] is inactive: 0.458; for PLTKVYVVEGS [ZMPSTE24_Y253] it is inactive: 0.71; for KMKGDYYCYLA [YWHAG_Y130_R132C] it is inactive: 1.15.
On the same count and under the same terms, the figure for VLALWYFFLTN [ZDHHC23_Y127_H132N_YF] is inactive: 1.96; for LLSVAYKNVVR [YWHAZ_Y48_G53R] it is inactive: 0.806.
Still for that read-out and setting: to PYTDPYYDYEI [ZC3H18_Y371_A368T] belongs inactive: 0.839; to MKGEYYRYLAE [YWHAG_Y131_D129E], inactive: 0.667.
CPPELYALMSD [ZAP70_Y569]: the enrichment score was inactive: 1.5.
Still for that read-out and setting: the figure for PFTDPYFDFEI [ZC3H18_Y371_A368T_YF] is inactive: 0.781; for KACKHYLTKRT [ZBTB5_Y118_T121K] it is active: 4.22; for GADDSYFTVRS [ZAP70_Y492_A495V_YF] it is inactive: 0.611.
On the same count and under the same terms, to VMLENYSNLLS [ZFP69_Y109_V113L] belongs inactive: 1.11; to APRKVYDTQDD [ZFPL1_Y215_R218Q], inactive: 0.529.
Take GDYYCYLAEVA [YWHAG_Y133_R132C]: the enrichment score was inactive: 2.78.
For WPLKWYAPECI [ZAP70_Y506], the enrichment score was inactive: 1.35.
Same read-out and setting: the figure for KACKHYLTTRT [ZBTB5_Y118] is active: 3.69; for ADDSFYTARSA [ZAP70_Y493_YF] it is inactive: 0.311.
Take TGDRPYVCPFD [YY1_Y383]: the enrichment score is inactive: 0.685.

A further assay deals with SHP2 N-SH2 domain wild-type. The assay is described as above. The following applies: peptide library: pTyr-Var.
YTDPYYDYEIE [ZC3H18_Y372_A368T]: the enrichment score was inactive: 0.817.
Still for that read-out and setting: the figure for GADDSYYTVRS [ZAP70_Y492_A495V] is inactive: 0.56; for PLTKVYVVEGS [ZMPSTE24_Y253] it is inactive: 0.512; for KMKGDYYCYLA [YWHAG_Y130_R132C] it is inactive: 1.12.
The same measure, in the same setting: to VLALWYFFLTN [ZDHHC23_Y127_H132N_YF] belongs inactive: 3.12; to LLSVAYKNVVR [YWHAZ_Y48_G53R], inactive: 0.911.
Same read-out and setting: the figure for PYTDPYYDYEI [ZC3H18_Y371_A368T] is inactive: 0.683.
As to MKGEYYRYLAE [YWHAG_Y131_D129E], the enrichment score was inactive: 0.838.
On the same count and under the same terms, the figure for CPPELYALMSD [ZAP70_Y569] is inactive: 2.37; for PFTDPYFDFEI [ZC3H18_Y371_A368T_YF] it is inactive: 1.2; for KACKHYLTKRT [ZBTB5_Y118_T121K] it is active: 3.25.
On the same count and under the same terms, to GADDSYFTVRS [ZAP70_Y492_A495V_YF] belongs inactive: 0.914; to VMLENYSNLLS [ZFP69_Y109_V113L], inactive: 0.964.
Turning to APRKVYDTQDD [ZFPL1_Y215_R218Q], the enrichment score was inactive: 0.621.
On the same count and under the same terms, to GDYYCYLAEVA [YWHAG_Y133_R132C] belongs inactive: 1.6; to WPLKWYAPECI [ZAP70_Y506], inactive: 1.55.
Still for that read-out and setting: the figure for KACKHYLTTRT [ZBTB5_Y118] is inactive: 2.66.
Still for that read-out and setting: to ADDSFYTARSA [ZAP70_Y493_YF] belongs inactive: 0.383; to TGDRPYVCPFD [YY1_Y383], inactive: 0.763.

The values above are taken from the supplement of paper PMC10369915.
